The supplement of paper PMC3334620
The full ranking holds about 33,000 sequences; the median of “E-score (-0.5 to 0.5)” is about -0.011, and the highest 2% start at about 0.28. This is one part of the list.

Molecular target: T1, Gcr1 (UniProt P07261)
T1 sequence: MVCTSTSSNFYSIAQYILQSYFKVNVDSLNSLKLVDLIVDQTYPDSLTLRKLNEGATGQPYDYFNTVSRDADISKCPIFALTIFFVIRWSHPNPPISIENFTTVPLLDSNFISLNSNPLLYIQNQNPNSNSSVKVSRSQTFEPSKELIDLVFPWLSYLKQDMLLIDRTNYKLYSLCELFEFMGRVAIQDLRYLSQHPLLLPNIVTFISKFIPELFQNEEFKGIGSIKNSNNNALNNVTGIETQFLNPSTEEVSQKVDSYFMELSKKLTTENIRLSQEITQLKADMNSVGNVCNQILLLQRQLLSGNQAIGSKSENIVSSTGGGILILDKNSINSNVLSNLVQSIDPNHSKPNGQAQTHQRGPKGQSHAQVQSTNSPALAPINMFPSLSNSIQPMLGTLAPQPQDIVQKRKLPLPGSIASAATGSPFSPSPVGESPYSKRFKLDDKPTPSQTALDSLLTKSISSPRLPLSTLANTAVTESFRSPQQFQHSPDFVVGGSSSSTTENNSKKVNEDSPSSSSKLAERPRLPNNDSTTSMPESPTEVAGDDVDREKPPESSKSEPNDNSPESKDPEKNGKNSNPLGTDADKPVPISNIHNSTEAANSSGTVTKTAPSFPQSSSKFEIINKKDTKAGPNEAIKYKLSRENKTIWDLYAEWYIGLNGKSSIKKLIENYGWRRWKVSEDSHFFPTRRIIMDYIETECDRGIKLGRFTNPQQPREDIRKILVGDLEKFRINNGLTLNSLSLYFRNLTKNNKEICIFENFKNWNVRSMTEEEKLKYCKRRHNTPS
Test: PBM E-score (8-mer binding enrichment) (E-score (-0.5 to 0.5)); higher = stronger / more preferred TF binding; most listed sequences are background and not binding sites
Conditions: protein concentration: 100 nM; construct: GST-full length
In short: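 Yeast transcription factors, full-length or as DNA-binding domains, were expressed with a GST tag using PURExpress in vitro transcription/translation. At about 100-200 nM they were applied to universal all-10-mer Agilent arrays, double-stranded by primer extension on fresh or once-stripped slides. Fluorescent anti-GST detected bound protein, and masliner normalised the scans. E-scores for ungapped eight-base words, pooled with reverse complements, came from the Universal PBM Analysis Suite.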

In order of rising “PBM E-score” value:
1. ACTGTTCT  -0.255
2. CAGGTCCG  -0.249
3. GAACTGTA  -0.248
4. CCGAGGCA  -0.244
5. GTAGTGCA  -0.243
6. AGAACTGC  -0.243
7. GCGAAAGA  -0.211
8. CTCGACCA  -0.206
9. ACGCCCTC  -0.2
10. CCGTGAAG  -0.196
11. CGAAGGTC  -0.186
12. ACACGACC  -0.177
13. GCCTCAGC  -0.158
14. CTTAATCC  -0.158
15. AACGGTAC  -0.156
16. ATTGCTCG  -0.154
17. CCATGCGC  -0.154
18. GGCAGTAC  -0.15
19. AAAGGCCG  -0.147
20. AGCTTAGG  -0.145
21. ATGGCTAA  -0.14
22. AACTAACT  -0.134
23. CCTTCTGC  -0.132
24. CCATCACG  -0.132
25. GTTCACGA  -0.123
26. GGGGTGAA  -0.121
27. CGGACGTA  -0.119
28. GTCATAGA  -0.118
29. ACCTGCGA  -0.117
30. CGGGGGAA  -0.116
31. ACGAGACA  -0.115
32. GGGGAGTA  -0.115
33. CTCACCTA  -0.115
34. GCCGGTAC  -0.114
35. CTTTCTGC  -0.11
36. ATAGTTCC  -0.104
37. CCTGCCCC  -0.103
38. CCGGCCTC  -0.103
39. CGTTAGTC  -0.1
40. AGACTTGG  -0.0976
41. CAGTTCTA  -0.0976
42. GGTGCACC  -0.0928
43. ACTAGGAA  -0.0866
44. GGTGTGCA  -0.0866
45. CCATTGGG  -0.0786
46. CTGCTCAC  -0.0783
47. AGATCACG  -0.0767
48. CACGCCTC  -0.0746
49. CCGGTCCA  -0.0711
50. GCAAATGC  -0.0704
51. ATCGGGGG  -0.0694
52. CTGTCAAC  -0.0693
53. CTGATGGC  -0.068
54. AACGCTCA  -0.0634
55. GGATGTAC  -0.0621
56. CCGCCGAC  -0.06
57. AGCGAAAT  -0.0598
58. GACAGTTA  -0.059
59. ACATGTCC  -0.057
60. AAAAGCTT  -0.057
61. GGCTACGA  -0.0566
62. AGTAGGTC  -0.0554
63. CCGCGAAG  -0.054
64. CCGTCTAC  -0.0528
65. CATCTCGA  -0.0496
66. ATCTATGG  -0.0486
67. ACGTACAT  -0.0458
68. CAGAATCA  -0.0432
69. CAATCTGC  -0.0428
70. AGCCAGCA  -0.0416
71. ATCTCCCG  -0.0408
72. GCATTCGC  -0.0396
73. AATCTCAC  -0.0394
74. ACGCAGTC  -0.0364
75. GTGAACCA  -0.0295
76. CCGCCCGG  -0.028
77. AGGTCCCA  -0.0217
78. CTCTACAG  -0.0206
79. CCTAGTAA  -0.0196
80. ATAGCTAA  -0.0177
81. CATCATCC  -0.0162
82. CCTACGTC  -0.0143
83. ATACTTGG  -0.0135
84. TCAAAAGA  -0.013
85. AATTCGCG  -0.00914
86. ATTTCAAG  -0.0053
87. GATGAGTA  -0.00303
88. CTCTAAGA  -0.00019
89. ATTGGCTC  0.00258
90. ACCAACGC  0.00771
91. CATCGGTA  0.0128
92. CAGTACAA  0.0134
93. ACCTGACT  0.0172
94. CTCGTGTC  0.0176
95. ATCGAATC  0.0186
96. TACTCCTA  0.0232
97. GACTCAAA  0.0253
98. GAGCAGTA  0.0264
99. ATTCACTC  0.0286
100. ATCAGTCG  0.0288
101. AAGAGAGA  0.0367
102. AAACGCGG  0.0452
103. TCCGCGAA  0.0467
104. CTAGTTCC  0.0492
105. AGCACAGG  0.0492
106. TGAGTCAA  0.0503
107. AATCAGCA  0.0527
108. GGCATCAA  0.0535
109. AGTGTCCA  0.057
110. AATGATCA  0.0586
111. GCAGTCCC  0.0603
112. CAAACACC  0.0607
113. AATTATGC  0.0621
114. GACGACCA  0.0626
115. GTGTCAAA  0.064
116. AGGAAACA  0.0646
117. AACTATAG  0.0658
118. ACAACATA  0.0664
119. GCAGAACC  0.0689
120. CACGTTTA  0.0739
121. GTTCTTAA  0.0766
122. CTACTTTA  0.0783
123. GCCGGTAA  0.0785
124. ACCTAGAC  0.0795
125. ATTAAGCC  0.0811
126. AAAACCAA  0.0821
127. CATTAACC  0.0824
128. AATTAGGT  0.0846
129. CGTTGCGC  0.0871
130. CAGTGATA  0.0897
131. ATCACGAA  0.0928
132. AATTTGTA  0.0965
133. GTATACAA  0.0979
134. AGGATAAA  0.105
135. GCACTTAA  0.106
136. AATGTACA  0.11
137. GAATACAA  0.111
138. CGACTAAA  0.116
139. CATCTATA  0.122
140. GTATTCTA  0.123
141. CTATTATC  0.124
142. CCACTTAG  0.125
143. AATTGGAC  0.132
144. AATGGGTG  0.133
145. TCACTAAA  0.134
146. AGTAGGAA  0.143
147. AAACGGAT  0.155
148. ATTGTTAG  0.156
149. CGACGCCA  0.157
150. ATGAATTA  0.16
151. CTCTGAAA  0.162
152. AAAAGCGG  0.165
153. CAAATAGG  0.168
154. CATCCTCA  0.168
155. CATTCCCG  0.17
156. AAATAAAG  0.171
157. CAAATTCG  0.176
158. CTCCAAAC  0.176
159. AATTTAAG  0.18
160. ATTGGTGG  0.181
161. GTACGGGA  0.182
162. TAGCTCGA  0.187
163. ATTCCGGC  0.191
164. GACAAAAA  0.197
165. GCCGAATA  0.2
166. CCAGGTGC  0.203
167. AGGACCCA  0.208
168. CTTTCAAA  0.209
169. AGCGACCA  0.257
170. AAGATTCT  0.264
171. AATTCCAG  0.274
172. GCGCATCC  0.331
